# Test results taken from the supplement of paper PMC3334620.
# Whole data set: some 33,000 sequences, median “E-score (-0.5 to 0.5)” near -0.016, cut for the highest 2% near 0.31. This is one part of the list.
# Biological target: Cst6 (UniProt P40535)
# Assay: PBM E-score (8-mer binding enrichment) (E-score (-0.5 to 0.5)); higher = stronger / more preferred TF binding; most listed sequences are background and not binding sites
# Conditions: protein concentration: 200 nM; construct: GST-DNA-binding domain
# Description: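 Universal 'all 10-mer' protein binding microarrays (Agilent AMADID 015681) probed with GST-tagged S. cerevisiae TFs (full-length or DBD) made by in vitro transcription/translation (PURExpress), about 100-200 nM. Bound TF was detected with fluorescent anti-GST. Each ungapped 8-mer (which stands for itself and its reverse complement) is scored by the PBM enrichment score (E-score), a modified Wilcoxon-Mann-Whitney statistic from -0.5 to +0.5, computed with the Universal PBM Analysis Suite. Scale: above 0.35 generally sequence-specific binding.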
row,Sequence,PBM E-score
1,AGGCGACA,-0.0556
2,ATCCGTGG,-0.155
3,AAGCTGGC,-0.0805
4,CAGGGAAA,-0.143
5,TACCCTAA,-0.0225
6,GTGCAACA,-0.192
7,GTGTGATA,0.235
8,AGGTTTAT,0.0862
9,CACTTACC,0.0685
10,CGGGGAAA,0.0991
11,TGCCATAA,0.00753
12,GAAGTAAC,0.146
13,CGATGTTA,0.131
14,CCTGTGCG,-0.0438
15,CAACTTAA,0.113
16,AGTAGAAA,0.186
17,AAGGAGCG,-0.205
18,GACGTTAC,0.315
19,GTCTGGAA,-0.135
20,AATTCACC,0.0605
21,GATATCCC,-0.163
22,AAGATGGC,-0.00831

row,Sequence,PBM E-score
1,ATGATCGA,0.166
2,ACGGATCC,-0.0118
3,CAATGTGC,0.0457
4,GATATGCA,-0.0755
5,AGGGTACC,-0.3
6,GCGACATA,0.0207
7,CTCAGTTC,-0.108
8,ATAATGAG,0.0695
9,CACACCTG,-0.186
10,GCCTACCA,-0.209
11,AGGCACGG,0.173
12,CCATGCTA,-0.155
13,ATCTGTCG,0.0445
14,ATCCCTTA,-0.0902
15,TCTTCAAA,0.0166
16,GCATAGTA,0.033
17,AAGACGTG,-0.06
18,AGATTGAT,0.159
19,GCCGTCTA,0.105
20,CATGTTGA,0.273
21,GTGCATGA,0.181
22,ACCATAGA,0.0571

row,Sequence,PBM E-score
1,CGTCGATC,0.174
2,CTCATCGC,-0.0477
3,CTAACAAA,0.173
4,TACACACA,0.217
5,AACCAGTA,0.0474
6,AAGTCTTA,-0.0346
7,GTAACAAC,0.0637
8,GGCGTGCA,-0.191
9,GCTAACAA,0.0514
10,AAACTGAT,0.0925
11,ATCCGCAC,0.123
12,CACAATCA,0.17
13,GGATACAC,-0.132
14,AGACGCAT,-0.0757
15,CCATAAAG,0.00545
16,ATCTTGCC,-0.00355
17,ACTTGTAG,0.0293
18,GACTTAGC,-0.229
19,ACCTCGGC,-0.0335
20,ACAGTGCC,0.0277
21,TCCTCGAA,0.0889
22,GAAAATTC,0.146

row,Sequence,PBM E-score
1,CGTAAGGC,0.201
2,GAACCGCC,-0.092
3,TCCCCGGA,-0.201
4,CTAGTTTC,-0.0421
5,CGTTCGCC,-0.00224
6,CAGGGGAA,-0.307
7,AATTTTTC,0.163
8,CGCACTCC,-0.223
9,ACCCGAAT,-0.0327
10,CTGATAAC,0.0135
11,ATCTAAAA,0.136
12,AACGGACA,0.035
13,CCTAATGC,-0.0866
14,ACGGAGCC,-0.171
15,AGGCGTAC,0.0302
16,ACTGACTG,-0.0444
17,TAATACTA,0.245
18,ATAGGAGG,-0.217
19,TGGAATAA,0.0238
20,AGTGAGAA,0.149
21,GCTCGCTA,-0.132
22,AGTACCAT,-0.116

row,Sequence,PBM E-score
1,AATTCACT,0.129
2,AGCGCGCG,0.103
3,AAACCTCG,-0.136
4,ACAGTCCT,-0.131
5,ATCCTCAC,0.115
6,ATTGAAGA,0.169
7,ATTATGCC,0.119
8,CAGACATG,-0.00706
9,AGCTACCC,-0.168
10,CGACCGTC,-0.0866
11,ACAACCGA,0.0196
12,CGGTCGCC,-0.183
13,CTACACCC,-0.306
14,GCGGCCAC,-0.0514
15,TCGCACCA,-0.0988
16,GAGATTAC,0.312
17,CGCACGGA,0.154
18,CCCTCGCG,-0.016
19,TAGTGCGA,-0.146
20,TAGCTTGA,-0.0745
21,GACGAAGA,0.194
